Experimental data: PubChem BioAssay AID488969 (Vanderbilt High Throughput Screening Facility, 2010)
In all, about 110,000 compounds were measured (“z-score”: median about -0.1, highest 2% from about 2 on). This is one part of the list. Activity calls are given as the source filed them.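 How the source made its calls: active means z-score in the third read window above 3 or below -3; inactive means the rest.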

Molecular target: Metabotropic glutamate receptor 8 (Rattus norvegicus) (UniProt P70579)
Assay: mGluR8 Gi/Go-coupled signaling modulation – cell-based, rat, thallium flux, HTS, primary screen (AID 488969)
Conditions: HEK293 rat mGluR8, GIRK (G protein-gated inwardly rectifying potassium channel) thallium flux, FluoZin2; at 10 µM; stronger effect = higher value; submaximal glutamate (EC20) added with thallium

Chain of UniProt P70579 (P70579 whole entry, looked up): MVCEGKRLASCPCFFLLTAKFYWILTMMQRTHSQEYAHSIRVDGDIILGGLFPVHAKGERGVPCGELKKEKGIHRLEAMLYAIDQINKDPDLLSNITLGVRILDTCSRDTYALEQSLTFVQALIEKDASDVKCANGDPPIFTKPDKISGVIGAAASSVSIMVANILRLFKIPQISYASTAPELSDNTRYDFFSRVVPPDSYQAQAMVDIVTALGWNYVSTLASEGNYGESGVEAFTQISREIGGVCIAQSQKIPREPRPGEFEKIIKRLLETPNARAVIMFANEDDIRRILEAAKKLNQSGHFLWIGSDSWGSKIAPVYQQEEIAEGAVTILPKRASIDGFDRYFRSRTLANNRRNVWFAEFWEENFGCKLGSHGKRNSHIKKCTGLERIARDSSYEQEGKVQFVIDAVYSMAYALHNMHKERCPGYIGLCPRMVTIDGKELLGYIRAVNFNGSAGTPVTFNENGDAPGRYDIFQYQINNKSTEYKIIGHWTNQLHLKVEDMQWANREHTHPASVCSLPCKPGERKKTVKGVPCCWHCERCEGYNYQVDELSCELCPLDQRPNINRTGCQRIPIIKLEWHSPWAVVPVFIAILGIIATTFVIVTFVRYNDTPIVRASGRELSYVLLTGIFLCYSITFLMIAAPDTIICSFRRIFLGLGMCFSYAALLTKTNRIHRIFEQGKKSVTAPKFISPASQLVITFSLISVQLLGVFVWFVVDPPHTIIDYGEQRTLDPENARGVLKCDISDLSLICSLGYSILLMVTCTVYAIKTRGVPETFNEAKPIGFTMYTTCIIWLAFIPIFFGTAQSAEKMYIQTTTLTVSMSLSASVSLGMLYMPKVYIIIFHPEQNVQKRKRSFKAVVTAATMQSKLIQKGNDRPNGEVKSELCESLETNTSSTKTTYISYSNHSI

Row | SMILES | z-score
1 | O=C(COc1ccc(N2C(=O)c3ccccc3C2=O)cc1)c1ccccc1 | -0.0529
2 | CCCCOc1ncnc2c1[nH]c1ccc(OCC)cc12 | -0.0441
3 | C=CCNC(=O)c1c(N)n(-c2ccc3c(c2)OCO3)c2nc3ccccc3nc12 | 0.4
4 | CCCCCCn1c(N2CCN(c3ccccc3)CC2)nc2c1c(=O)n(C)c(=O)n2C | -0.0111
5 | COc1ccc(S(=O)(=O)N2CCCC(C(=O)N3CCCCCC3)C2)cc1 (configuration not stated) | 0.166
6 | Cc1scc(C(=O)NNC(=S)NCC2CCCO2)c1C (configuration not stated) | 0.379
7 | CCOC(=O)c1c(C)[nH]c(C(=O)CN2C(=O)NC(C)(c3ccc4ccccc4c3)C2=O)c1C (configuration not stated) | -0.218
8 | O=C(Nc1scc(-c2ccc(F)cc2)c1C(=O)O)c1ccco1 | -1.41
9 | COc1ccccc1CNC(=O)CCNC(=O)Cn1ccc2ccccc2c1=O | 0.853
10 | Cc1ccc(S(=O)(=O)Cc2ccc(C(=O)OCc3ccccc3)cc2)cc1 | -0.471
11 | CCC(C)Cn1c(C(C)O)nc2ccccc21 (configuration not stated) | -0.0788
12 | COc1cnc(-c2ccccn2)nc1Oc1ccccc1Cl | -0.437
13 | CN(C)C(=O)C1OC(C)(C)OC1C(=O)N(C)C (configuration not stated) | 0.649
14 | CC1(C)Cc2c(sc3nc(-c4cc5ccccc5o4)n(N)c(=O)c23)CO1 | -0.00131
15 | COc1ccc(/C(O)=C/c2nc3ccc(C(=O)NCCc4cccc(C)c4)cc3[nH]c2=O)cc1OC | -0.389
16 | CC1CCCCN1CCNC(=O)C1CC(=O)N(c2ccc(F)c(Cl)c2)C1 (configuration not stated) | -0.399
17 | CCCCC(=O)Nc1sc2c(c1C(N)=O)CCC2 | -1.03
18 | COC(=O)c1c(-c2cccnc2)csc1NC(=O)c1cc(C)on1 | -1.32
19 | O=C(c1ccc2nc(-c3ccco3)c(-c3ccco3)nc2c1)N1CCN(c2ncccn2)CC1 | -0.289
20 | Nc1c(S(=O)(=O)c2ccccc2)c2nc3ccccc3nc2n1Cc1ccco1 | -0.688
21 | CCOC(=O)Cc1csc2nc3sc(C)c(C)c3c(=O)n12 | -0.129
22 | O=C(OCC#CCSc1nnc(-c2ccc([N+](=O)[O-])cc2)o1)c1cccs1 | 0.545

Row | SMILES | z-score
23 | Cc1sc(NC(=O)c2ccco2)c(CN2CCN(c3ccccc3)CC2)c1C | -0.213
24 | CC(C)CC(=O)N1CCN(S(=O)(=O)c2ccc(F)cc2)CC1 | 0.488
25 | c1cncc(CNC2CCCc3ccccc32)c1 (configuration not stated) | -0.427
26 | CCOC(=O)C1CCN(Cc2ccc(C(=O)OC)cc2)CC1 | 1.03
27 | CC(=O)N/C(=N\OCc1ccccc1Cl)c1nonc1NC(C)=O | -0.0503
28 | CCC(C)c1ccccc1NC(=O)COC(=O)c1ccc2[nH]c3c(c2c1)CCCC3 (configuration not stated) | -0.0793
29 | Cn1c(=O)c2c(-c3ccccc3)n(-c3ccccc3O)cc2n(C)c1=O | -0.388
30 | CCCCCCC(=O)Nc1c2c(nc3ccccc13)N(C)CC2 | -0.102
31 | COc1cc(/C=c2\sc3nc(-c4ccncc4)nn3c2=O)ccc1OC(C)=O | -0.777
32 | Cc1c2c(nc3nc4ccccc4n13)CC(C)(C)CC2=O | -0.428
33 | COCCn1nnnc1CN(CCCN1CCOCC1)Cc1cc2c(C)ccc(C)c2[nH]c1=O | 0.0213
34 | CCOc1ccccc1OCCCCCc1c(C)n[nH]c1C | active: 3.05
35 | O=C(COc1ccc(Cl)cc1Cl)N1CCCC1 | -0.0258
36 | Cc1ccc(NC(=O)CN2C(=O)CSC2=O)cc1 | -0.151
37 | CC(C)CNS(=O)(=O)c1ccc2c(c1)OCCO2 | -0.266
38 | N#CC1=C(SCC(=O)Nc2nccs2)NC(=O)CC1c1ccccc1 (configuration not stated) | -0.5
39 | CCCC(=O)Nc1ccc(S(=O)(=O)N2CCCC2)cc1 | -0.314
40 | CCOc1c(C(N)=O)c(-c2ccccc2)c2c(=O)[nH]c3ccccc3n12 | 0.243
41 | O=C(Nc1cccc2ccccc12)C12CC3CC(C1)CC(n1cnc([N+](=O)[O-])n1)(C3)C2 | -0.118
42 | CCOC(=O)c1c(NC(=O)COc2cccc3c2CCN(CC)C3=O)sc2c1CCC2 | -0.925
43 | CCOC(=O)c1sc(NC(=O)Nc2ccc(Cl)cc2)cc1C | -0.165
44 | Cn1ncc(Cl)c(Oc2ccc(C(C)(C)C)cc2)c1=O | 0.28

Row | SMILES | z-score
45 | CNC(=O)c1cc(Nc2nnc(C)c3ccccc23)ccc1OC | 0.937
46 | Cc1ccc(-c2ncccc2OC(=O)C23CC4CC(CC(C4)C2)C3)cc1 | 0.0781
47 | CC(C)n1c(C(O)c2ccccc2)nc2ccccc21 (configuration not stated) | -0.297
48 | Cc1cc(SCCOc2ccccc2)nc(N)n1 | 0.961
49 | O=C(Nc1ccc(O)c(-c2nc3ccccc3s2)c1)c1cc(=O)c2ccccc2o1 | -0.229
50 | Cc1ccc(NC(=O)C2=C(O)CCn3c2nc2ccccc23)cc1 | -0.0826
51 | O=C(Nc1cc(=O)[nH]c2ncnn12)c1ccccc1 | -0.422
52 | COC(=O)c1ccccc1NC(=S)N(Cc1ccc2c(c1)OCO2)Cc1cc2ccc(C)cc2[nH]c1=O | 0.26
53 | Cc1cc(C)n2nc(Nc3ccccc3)cc2n1 | 0.47
54 | CC(C)(C)CC(C)(C)NC1=CC(=O)OC12CCCCC2 | -0.189
55 | CCOC(=O)c1cc(C)n(CCCN2CCOCC2)c1C | 0.369
56 | CCOC(=O)c1ccc(N2C(=O)C3CC=C(C)CC3C2=O)cc1 (configuration not stated) | -0.795
57 | COc1ccccc1-c1cc2nc(C)c(CCC(=O)NC(C)CCc3ccco3)c(C)n2n1 (configuration not stated) | -0.37
58 | CSc1nc(-c2ccc(Cl)cc2)nn1C(=O)c1ccccc1 | -0.147
59 | O=C(Nc1cccc(Cl)c1)C1=Cc2cc(Cl)ccc2OC1 | -0.313
60 | Cc1ccc(Oc2ncccc2/C=N/OCc2ccc(Cl)c(Cl)c2)cc1 | 0.00844
61 | Cc1ccc(S(=O)(=O)N(CCC(=O)Nc2ccc(OC(F)(F)F)cc2)c2ccccc2)cc1 | -0.147
62 | Cn1c(=O)c2c(nc(SCCN3CCOCC3)n2Cc2ccccc2Cl)n(C)c1=O | -0.442
63 | COC(=O)Cc1c(C)c2ccc(OCc3nn[nH]n3)c(C)c2oc1=O | 0.2
64 | O=C(CSCc1ccc(Cl)cc1Cl)Nc1c[nH]c(=O)[nH]c1=O | -0.284
65 | COc1ccc(C(=O)N2CCN(Cc3cc(OC)c(O)c(OC)c3)CC2)cc1OC | -0.421
66 | CCNc1oc(COc2ccccc2F)nc1C#N | 0.592

Row | SMILES | z-score
67 | C=CCSc1nc(O)c(CC)c(=O)n1C(C)CC (configuration not stated) | 0.657
68 | CCCCN(C(=O)CCC(=O)O)C1CC(=O)N(c2ccc(OCCC)cc2)C1=O (configuration not stated) | -0.292
69 | CC(C)(C)N(Cc1cc2ccccc2[nH]c1=O)C(=O)c1cccnc1 | 1.31
70 | CC(N=C1NS(=O)(=O)c2ccccc21)C(=O)NCc1ccc2c(c1)OCO2 (configuration not stated) | -0.102
71 | COc1ccc(/C=N/NC(=O)CCSc2nc3ccccc3s2)cc1 | 1.6
72 | Cc1ccc(N(C(C)C(=O)O)S(=O)(=O)c2c(C)[nH]c(=O)[nH]c2=O)cc1 (configuration not stated) | 0.294
73 | c1ccc(-c2noc(-c3ccc4ccccc4c3)n2)cc1 | -0.296
74 | COc1cccc(NS(=O)(=O)c2ccc3[nH]cc(C(=O)N(C)Cc4ccco4)c(=O)c3c2)c1 | -0.064
75 | Cn1cc(Br)c(C(=O)Nc2sc3c(c2C(N)=O)CCC3)n1 | -0.0793
76 | O=C(COc1ccc(Cl)cc1)Nc1ccc(Cl)cn1 | 0.0102
77 | N#CCCCCN1c2cccc3cccc(c23)S1(=O)=O | 0.762
78 | O=C(NCc1nnc(SCc2ccc(F)cc2)n1-c1ccc(F)cc1)C12CC3CC(CC(C3)C1)C2 | -0.0115
79 | CCOc1ccc(S(=O)(=O)Nc2nc3ccc(OC)cc3s2)cc1 | -0.352
80 | O=C(c1ccc2ccccc2n1)N1CCN(c2ccccc2)CC1 | 0.353
81 | O=C(CSc1nnc(SCc2ccccc2)s1)N/N=C/C=C\c1ccco1 | -0.33
82 | O=c1c2ccccc2n2c(-c3cccc(F)c3)nnc2n1Cc1ccccc1 | -0.25
83 | CCCn1c2ccccc2c2nnc(SCC(=O)Nc3c(C)n(C)n(-c4ccccc4)c3=O)nc21 | 0.182
84 | Cc1cccc(CCNc2nc3ccccc3n3nnnc23)c1 | 0.0311
85 | COc1cc(NC(=O)CN2CCC(Cc3ccccc3)CC2)c(C)cc1[N+](=O)[O-] | -0.206
86 | COC(=O)C1=C(C)NC2=C(C(=O)c3ccccc32)C1c1ccc(-c2ccc(C(=O)O)cc2)o1 (configuration not stated) | -1.5
87 | Nc1c(C(=O)Nc2ccccc2F)sc2nc(Cc3ccccc3)cc(C(F)(F)F)c12 | -0.288
88 | CC(C)OCCCNc1ncnc2c1cnn2-c1ccccc1 | -0.291

Row | SMILES | z-score
89 | COc1cc(C)ccc1N(CCCN1C(=O)c2cccc3cccc(c23)C1=O)C(=O)c1cccs1 | 0.509
90 | O=C(NCc1n[nH]c(=S)n1-c1ccc(F)cc1)c1ccc(S(=O)(=O)N2CCCC2)cc1 | 0.261
91 | CC(C)(C)NC(=O)C(c1ccncc1)N(C(=O)c1csnn1)C1CC1 (configuration not stated) | -0.195
92 | Cc1c(NC(=O)CSc2nnc(-c3ccco3)n2-c2ccccc2)c(=O)n(-c2ccccc2)n1C | -0.287
93 | CCOC(=O)c1ccc(NC(=S)Nc2ccccc2)cc1 | 1.7
94 | O=C(COc1ccc([N+](=O)[O-])cc1)N/N=C/c1cc([N+](=O)[O-])ccc1N1CCOCC1 | 0.208
95 | O=C1N=C(N2CCOCC2)S/C1=C\c1ccc(-c2ccccc2Cl)o1 | -0.0639
96 | COCCN1C(=O)C(=O)/C(=C(/O)c2cccc(S(=O)(=O)N(C)C)c2)C12C(=O)N(C)c1ccccc12 (configuration not stated) | -0.343
97 | Cc1ccc(CNC(=O)CCCOc2cc(=O)n(C)c3ccccc23)o1 | -0.129
98 | CCOc1cc2[nH]c(=O)n(CCC(=O)NCc3ccc(OC)cc3)c(=O)c2cc1OCC | -0.0556
99 | Cc1cccc(N2C(=O)SC(N(CC(=O)O)c3cccc(C)c3)C2=O)c1 (configuration not stated) | -0.564
100 | Cc1ccc(C(=O)OCC(=O)Nc2ncc(Cl)cc2Cl)cc1NC(=O)c1ccco1 | -0.0349
101 | CC(Sc1ncnc2ccccc12)C(=O)Nc1ccc2c(c1)OCCO2 (configuration not stated) | -0.25
102 | CC1CCCC/C1=N\NS(=O)(=O)c1ccc(Br)cc1 (configuration not stated) | 0.101
103 | CNC(=S)NNC(=O)COc1ccc(C)c(C)c1 | -0.056
104 | CCOC12CC(C)(C)CC(C)(CC3=C1C(=O)CC(C)(C)C3)C2 (configuration not stated) | 2.32
105 | O=C(COC(=O)c1cc(S(=O)(=O)N2CCOCC2)cs1)c1ccccc1 | 0.0581
106 | CCOc1c2ccc(C(=O)NCc3cc(C(F)(F)F)cc(C(F)(F)F)c3)cc2nn1CCOC | -0.219
107 | CCn1c(=O)n(CC(=O)Nc2cc(OC)ccc2OC)c(=O)c2ccccc21 | -0.247
